# Measurements: the supplement of paper PMC8728848
# The other results are listed elsewhere or left out.
# B1: Siglec-F (Mus musculus), Q920G3 (protein)
# chain: MRWAWLLPLLWAGCLATDGYSLSVTGSVTVQEGLCVFVACQVQYPNSKGPVFGYWFREGANIFSGSPVATNDPQRSVLKEAQGRFYLMGKENSHNCSLDIRDAQKIDTGTYFFRLDGSVKYSFQKSMLSVLVIALTEVPNIQVTSTLVSGNSTKLLCSVPWACEQGTPPIFSWMSSALTSLGHRTTLSSELNLTPRPQDNGTNLTCQVNLPGTGVTVERTQQLSVIYAPQKMTIRVSWGDDTGTKVLQSGASLQIQEGESLSLVCMADSNPPAVLSWERPTQKPFQLSTPAELQLPRAELEDQGKYICQAQNSQGAQTASVSLSIRSLLQLLGPSCSFEGQGLHCSCSSRAWPAPSLRWRLGEGVLEGNSSNGSFTVKSSSAGQWANSSLILSMEFSSNHRLSCEAWSDNRVQRATILLVSGPKVSQAGKSETSRGTVLGAIWGAGLMALLAVCLCLIFFTVKVLRKKSALKVAATKGNHLAKNPASTINSASITSSNIALGYPIQGHLNEPGSQTQKEQPPLATVPDTQKDEPELHYASLSFQGPMPPKPQNTEAMKSVYTEIKIHKC
# How the values were obtained:
# Experiment in all cases: glycan array binding signal (z-score within array); higher = stronger binding
# Settings in all cases: glycan notation: IUPAC condensed, linker removed
# Fuc(a1-2)Gal = target: Fuc(a1-2)Gal
# Outline: (§1)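 Negative Z-scores can be read as non-binding. The Z-score is calculated within each array and then averaged across arrays of one protein sequence at different concentrations or buffers and across linkers. Arrays, 3228 in all, were curated from the Consortium for Functional Glycomics database and kept only where the protein sequence was available.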
# Fuc(a1-2)Gal(b1-3)GalNAc = target: Fuc(a1-2)Gal(b1-3)GalNAc
# Outline: as §1
# [1] = target: Fuc(a1-2)Gal(b1-3)GalNAc(a1-3)[Fuc(a1-2)]Gal(b1-4)Glc
# Outline: as §1
# [2] = target: Fuc(a1-2)Gal(b1-3)GalNAc(a1-3)[Fuc(a1-2)]Gal(b1-4)GlcNAc
# Outline: as §1
# [3] = target: Fuc(a1-2)Gal(b1-3)GalNAc(b1-3)Gal
# Outline: as §1
# [4] = target: Fuc(a1-2)Gal(b1-3)GalNAc(b1-3)Gal(a1-4)Gal(b1-4)Glc
# Outline: as §1
# [5] = target: Fuc(a1-2)Gal(b1-3)GalNAc(b1-4)[Neu5Ac(a2-3)]Gal(b1-4)Glc
# Outline: as §1
# Fuc(a1-2)Gal(b1-3)GlcNAc = target: Fuc(a1-2)Gal(b1-3)GlcNAc
# Outline: as §1
# [6] = target: Fuc(a1-2)Gal(b1-3)GlcNAc(b1-2)Man(a1-3)[Fuc(a1-2)Gal(b1-3)GlcNAc(b1-2)Man(a1-6)]Man(b1-4)GlcNAc(b1-4)GlcNAc
# Outline: as §1
# [7] = target: Fuc(a1-2)Gal(b1-3)GlcNAc(b1-2)Man(a1-3)[Fuc(a1-2)Gal(b1-3)GlcNAc(b1-2)Man(a1-6)]Man(b1-4)GlcNAc(b1-4)[Fuc(a1-6)]GlcNAc
# Outline: as §1
# [8] = target: Fuc(a1-2)Gal(b1-3)GlcNAc(b1-3)Gal(b1-4)Glc
# Outline: as §1
# [9] = target: Fuc(a1-2)Gal(b1-3)GlcNAc(b1-3)GalNAc
# Outline: as §1
# [10] = target: Fuc(a1-2)Gal(b1-3)GlcNAc(b1-3)[Fuc(a1-2)Gal(b1-3)GlcNAc(b1-6)]GalNAc
# Outline: as §1
# [11] = target: Fuc(a1-2)Gal(b1-3)GlcNAc(b1-3)[Fuc(a1-3)[Gal(b1-4)]GlcNAc(b1-6)]Gal(b1-4)Glc
# Outline: as §1
# [12] = target: Fuc(a1-2)Gal(b1-3)GlcNAc(b1-3)[Gal(b1-4)GlcNAc(b1-6)]Gal(b1-4)Glc
# Outline: as §1
# [13] = target: Fuc(a1-2)Gal(b1-3)GlcNAc(b1-3)[Neu5Ac(a2-6)Gal(b1-4)GlcNAc(b1-6)]Gal(b1-4)Glc
# Outline: as §1
# [14] = target: Fuc(a1-2)Gal(b1-3)GlcNAc6S
# Outline: as §1
# [15] = target: Fuc(a1-2)Gal(b1-3)[Fuc(a1-4)]GlcNAc
# Outline: as §1
# [16] = target: Fuc(a1-2)Gal(b1-3)[Fuc(a1-4)]GlcNAc(b1-2)Man(a1-3)[Fuc(a1-2)Gal(b1-3)[Fuc(a1-4)]GlcNAc(b1-2)Man(a1-3)]Man(b1-4)GlcNAc(b1-4)GlcNAc
# Outline: as §1
# [17] = target: Fuc(a1-2)Gal(b1-3)[Fuc(a1-4)]GlcNAc(b1-2)Man(a1-3)[Fuc(a1-2)Gal(b1-3)[Fuc(a1-4)]GlcNAc(b1-2)Man(a1-6)]Man(b1-4)GlcNAc(b1-4)GlcNAc
# Outline: as §1
# [18] = target: Fuc(a1-2)Gal(b1-3)[Fuc(a1-4)]GlcNAc(b1-2)Man(a1-3)[Fuc(a1-2)Gal(b1-3)[Fuc(a1-4)]GlcNAc(b1-2)Man(a1-6)]Man(b1-4)GlcNAc(b1-4)[Fuc(a1-6)]GlcNAc(b1-4)[Fuc(a1-6)]GlcNAc
# Outline: as §1
# [19] = target: Fuc(a1-2)Gal(b1-3)[Fuc(a1-4)]GlcNAc(b1-3)[Fuc(a1-3)[Gal(b1-4)]GlcNAc(b1-6)]Gal(b1-4)Glc
# Outline: as §1
# [20] = target: Fuc(a1-2)Gal(b1-3)[Fuc(a1-4)]GlcNAc(b1-3)[Gal(b1-4)GlcNAc(b1-6)]Gal(b1-4)Glc
# Outline: as §1
# [21] = target: Fuc(a1-2)Gal(b1-4)Fuc(a1-3)]GlcNAc(b1-2)Man(a1-3)[Fuc(a1-2)Gal(b1-4)[Fuc(a1-3)]GlcNAc(b1-2)Man(a1-6)]Man(b1-4)GlcNAc(b1-4)GlcNAc
# Outline: as §1
# Fuc(a1-2)Gal(b1-4)Glc = target: Fuc(a1-2)Gal(b1-4)Glc
# Outline: as §1
# Fuc(a1-2)Gal(b1-4)Glc6S = target: Fuc(a1-2)Gal(b1-4)Glc6S
# Outline: as §1
# Fuc(a1-2)Gal(b1-4)GlcNAc = target: Fuc(a1-2)Gal(b1-4)GlcNAc
# Outline: as §1
# [22] = target: Fuc(a1-2)Gal(b1-4)GlcNAc(b1-2)Man
# Outline: as §1
# [23] = target: Fuc(a1-2)Gal(b1-4)GlcNAc(b1-2)Man(a1-3)[Fuc(a1-2)Gal(b1-4)GlcNAc(b1-2)Man(a1-6)]Man(b1-4)GlcNAc(b1-4)GlcNAc
# Outline: as §1
# [24] = target: Fuc(a1-2)Gal(b1-4)GlcNAc(b1-2)Man(a1-3)[Fuc(a1-2)Gal(b1-4)GlcNAc(b1-2)Man(a1-6)]Man(b1-4)GlcNAc(b1-4)[Fuc(a1-6)]GlcNAc
# Outline: as §1
# [25] = target: Fuc(a1-2)Gal(b1-4)GlcNAc(b1-2)[Fuc(a1-2)Gal(b1-4)GlcNAc(b1-4)]Man(a1-3)[Fuc(a1-2)Gal(b1-4)GlcNAc(b1-2)Man(a1-6)]Man(b1-4)GlcNAc(b1-4)GlcNAc
# Outline: as §1
# [26] = target: Fuc(a1-2)Gal(b1-4)GlcNAc(b1-3)Gal(b1-4)GlcNAc
# Outline: as §1
# [27] = target: Fuc(a1-2)Gal(b1-4)GlcNAc(b1-3)Gal(b1-4)GlcNAc(b1-2)Man(a1-3)[Fuc(a1-2)Gal(b1-4)GlcNAc(b1-3)Gal(b1-4)GlcNAc(b1-2)Man(a1-6)]Man(b1-4)GlcNAc(b1-4)GlcNAc
# Outline: as §1
# [28] = target: Fuc(a1-2)Gal(b1-4)GlcNAc(b1-3)Gal(b1-4)GlcNAc(b1-3)Gal(b1-4)GlcNAc
# Outline: as §1
# [29] = target: Fuc(a1-2)Gal(b1-4)GlcNAc(b1-3)GalNAc
# Outline: as §1
# [30] = target: Fuc(a1-2)Gal(b1-4)GlcNAc(b1-3)[Fuc(a1-2)Gal(b1-4)GlcNAc(b1-6)]GalNAc
# Outline: as §1
# [31] = target: Fuc(a1-2)Gal(b1-4)GlcNAc(b1-3)[Fuc(a1-3)[Gal(b1-4)]GlcNAc(b1-6)]Gal(b1-4)Glc
# Outline: as §1
# [32] = target: Fuc(a1-2)Gal(b1-4)GlcNAc(b1-6)GalNAc
# Outline: as §1
# [33] = target: Fuc(a1-2)Gal(b1-4)GlcNAc6S
# Outline: as §1
# [34] = target: Fuc(a1-2)Gal(b1-4)[Fuc(a1-3)]GlcNAc
# Outline: as §1
# [35] = target: Fuc(a1-2)Gal(b1-4)[Fuc(a1-3)]GlcNAc(b1-2)Man(a1-3)[Fuc(a1-2)Gal(b1-4)[Fuc(a1-3)]GlcNAc(b1-2)Man(a1-6)]Man(b1-4)GlcNAc(b1-4)GlcNAc
# Outline: as §1
# [36] = target: Fuc(a1-2)Gal(b1-4)[Fuc(a1-3)]GlcNAc(b1-2)Man(a1-3)[Fuc(a1-2)Gal(b1-4)[Fuc(a1-3)]GlcNAc(b1-2)Man(a1-6)]Man(b1-4)GlcNAc(b1-4)[Fuc(a1-6)]GlcNAc
# Outline: as §1
# [37] = target: Fuc(a1-2)Gal(b1-4)[Fuc(a1-3)]GlcNAc(b1-2)[Fuc(a1-2)Gal(b1-4)[Fuc(a1-3)]GlcNAc(b1-4)]Man(a1-3)[Fuc(a1-2)Gal(b1-4)[Fuc(a1-3)]GlcNAc(b1-2)Man(a1-6)]Man(b1-4)GlcNAc(b1-4)GlcNAc
# Outline: as §1
# [38] = target: Fuc(a1-2)Gal(b1-4)[Fuc(a1-3)]GlcNAc(b1-3)Gal(b1-4)[Fuc(a1-3)]GlcNAc
# Outline: as §1
# [39] = target: Fuc(a1-2)Gal(b1-4)[Fuc(a1-3)]GlcNAc(b1-3)Gal(b1-4)[Fuc(a1-3)]GlcNAc(b1-3)Gal(b1-4)[Fuc(a1-3)]GlcNAc
# Outline: as §1
binder,measurement,setting,value
B1,glycan array binding signal (z-score),Fuc(a1-2)Gal,-0.118
same,glycan array binding signal (z-score),Fuc(a1-2)Gal(b1-3)GalNAc,-0.13
same,glycan array binding signal (z-score),[1],-0.098
same,glycan array binding signal (z-score),[2],-0.114
same,glycan array binding signal (z-score),[3],-0.124
same,glycan array binding signal (z-score),[4],-0.117
same,glycan array binding signal (z-score),[5],-0.122
same,glycan array binding signal (z-score),Fuc(a1-2)Gal(b1-3)GlcNAc,-0.119
same,glycan array binding signal (z-score),[6],-0.1
same,glycan array binding signal (z-score),[7],-0.079
same,glycan array binding signal (z-score),[8],-0.122
same,glycan array binding signal (z-score),[9],-0.126
same,glycan array binding signal (z-score),[10],-0.142
same,glycan array binding signal (z-score),[11],-0.088
same,glycan array binding signal (z-score),[12],-0.126
same,glycan array binding signal (z-score),[13],-0.115
same,glycan array binding signal (z-score),[14],-0.074
same,glycan array binding signal (z-score),[15],-0.132
same,glycan array binding signal (z-score),[16],-0.076
same,glycan array binding signal (z-score),[17],-0.079
same,glycan array binding signal (z-score),[18],-0.114
same,glycan array binding signal (z-score),[19],-0.122
same,glycan array binding signal (z-score),[20],-0.104
same,glycan array binding signal (z-score),[21],0.032
same,glycan array binding signal (z-score),Fuc(a1-2)Gal(b1-4)Glc,-0.101
same,glycan array binding signal (z-score),Fuc(a1-2)Gal(b1-4)Glc6S,-0.111
same,glycan array binding signal (z-score),Fuc(a1-2)Gal(b1-4)GlcNAc,-0.119
same,glycan array binding signal (z-score),[22],-0.138
same,glycan array binding signal (z-score),[23],0.132
same,glycan array binding signal (z-score),[24],-0.123
same,glycan array binding signal (z-score),[25],-0.129
same,glycan array binding signal (z-score),[26],-0.13
same,glycan array binding signal (z-score),[27],-0.079
same,glycan array binding signal (z-score),[28],-0.124
same,glycan array binding signal (z-score),[29],-0.105
same,glycan array binding signal (z-score),[30],0.009
same,glycan array binding signal (z-score),[31],-0.151
same,glycan array binding signal (z-score),[32],-0.066
same,glycan array binding signal (z-score),[33],-0.129
same,glycan array binding signal (z-score),[34],-0.122
same,glycan array binding signal (z-score),[35],-0.085
same,glycan array binding signal (z-score),[36],-0.117
same,glycan array binding signal (z-score),[37],-0.13
same,glycan array binding signal (z-score),[38],-0.127
same,glycan array binding signal (z-score),[39],-0.118
